Results as given in the supplement of paper PMC10126150.
Sequences with one replicate were seen in a single cluster, so their values are uncertain.

test system: ATP; assay: switch fluorescence ratio, 500 uM ATP over buffer (Cy3 cluster intensity, sum of 5 cycles each) (fold (ratio)); higher = stronger signal-on switching upon ATP binding; sequences stand for … in TCGTCGGCAGCGTCAGATGTGTATAAGAGACAGTTTTTTTTTTTTTTTTTTTTTTTTT…TC; settings: aptamer strand: ATP DNA aptamer (quencher-CACCTGGGGGAGTATTGCGGAGGAAGG + anchor), 100 nM annealed; ATP concentration: 500 uM; one replicate
Outline: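 Values give the fluorescence ratio for each switch-domain sequence, averaged from per-cluster ratios of summed target-cycle to summed buffer-cycle Cy3 intensity. The Cy3-labelled switching-strand clusters sat on a modified Illumina MiSeq flow-cell, were annealed to 100 nM quencher-labelled ATP aptamer, and were imaged in selection buffer, then after 15 min with 500 uM ATP at 22 °C. Five cycles ran with NaOH stripping and re-annealing between them, and clusters outside 100-1000 RFU were excluded.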
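Also: ATP exposure 15 min at 22 °C before imaging.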

Row | Sequence | switch fluorescence ratio
1 | AGGGCAGTGT | 1.02
2 | AGGGCCATCT | 1.06
3 | AGGGCCCACG | 1.04
4 | AGGGCCCTTC | 0.979
5 | AGGGCCTGGA | 1
6 | AGGGCGCCAC | 0.979
7 | AGGGCGCCGT | 1.16
8 | AGGGCGCCTT | 1.08
9 | AGGGCGCTGG | 0.969
10 | AGGGCTAAGT | 0.944
11 | AGGGCTTACC | 1.06
12 | AGGGGAAGCA | 1
13 | AGGGGAGCAA | 1.45
14 | AGGGGAGTCA | 0.95
15 | AGGGGATTA | 1.03
16 | AGGGGCGAAC | 1.01
17 | AGGGGCTGCA | 1.2
18 | AGGGGGTCA | 1.02
19 | AGGGGGTGA | 1.01
20 | AGGGGTAAGC | 1.01
21 | AGGGGTCCAC | 0.995
22 | AGGGGTTACT | 1.05
23 | AGGGGTTAGA | 0.975
24 | AGGGGTTTCA | 1
25 | AGGGTACACT | 1.02

Row | Sequence | switch fluorescence ratio
26 | AGGGTACAGG | 1.11
27 | AGGGTACCAC | 0.996
28 | AGGGTACGAG | 1.02
29 | AGGGTAGTAA | 0.976
30 | AGGGTAGTGA | 0.982
31 | AGGGTCGGCC | 1.04
32 | AGGGTGAACG | 0.961
33 | AGGGTTAAGC | 1.01
34 | AGGGTTAGAC | 1.01
35 | AGGGTTCGCA | 1.01
36 | AGGGTTCTT | 1.04
37 | AGGGTTGATC | 1.04
38 | AGGTACCTTA | 0.993
39 | AGGTAGAAGG | 0.993
40 | AGGTCACCGT | 0.97
41 | AGGTCAGTAT | 0.991
42 | AGGTCCATGG | 1
43 | AGGTCCGGT | 0.989
44 | AGGTCCGTGA | 1.03
45 | AGGTCGATCA | 0.971
46 | AGGTCGGAT | 1.07
47 | AGGTCTACTT | 0.984
48 | AGGTCTGAC | 0.964
49 | AGGTCTTAGT | 0.988
50 | AGGTGAATGA | 1.08

Row | Sequence | switch fluorescence ratio
51 | AGGTGACGGA | 0.977
52 | AGGTGAGGAC | 1.01
53 | AGGTGATGCA | 1.05
54 | AGGTGCGCGT | 1.02
55 | AGGTGCGGAT | 1.02
56 | AGGTGCTCTC | 1.06
57 | AGGTGCTTCT | 0.98
58 | AGGTGGAAAG | 1.01
59 | AGGTGGAATA | 1.06
60 | AGGTGTCGCC | 1.01
61 | AGGTGTCTAG | 0.996
62 | AGGTGTGATC | 1.04
63 | AGGTTAACGT | 1.02
64 | AGGTTACTTG | 1.01
65 | AGGTTAGCGC | 0.924
66 | AGGTTAGCTA | 0.961
67 | AGGTTCGAGC | 1.07
68 | AGGTTGGCAC | 1.03
69 | AGGTTTGACC | 0.966
70 | AGTAAACTCT | 1.05
71 | AGTAACAGG | 1.06
72 | AGTAACTCAG | 1.01
73 | AGTAAGCCGT | 0.861
74 | AGTAATAACC | 1.08
75 | AGTAATAGCA | 0.99

Row | Sequence | switch fluorescence ratio
76 | AGTAATATTA | 0.983
77 | AGTAATTAAG | 1.02
78 | AGTAATTCTT | 0.977
79 | AGTAATTTTC | 1
80 | AGTACCTGCT | 1.03
81 | AGTACGGGAA | 1.05
82 | AGTACTAAGT | 1.02
83 | AGTAGCACCC | 1.04
84 | AGTAGGACGA | 0.983
85 | AGTAGGCGAA | 0.995
86 | AGTAGGCGGC | 0.996
87 | AGTAGGCTGT | 1
88 | AGTAGTCGTT | 0.973
89 | AGTATAATCC | 1
90 | AGTATAGTTC | 1.01
91 | AGTATATCCG | 1.02
92 | AGTATCAAGC | 0.999
93 | AGTATGGAGT | 1.04
94 | AGTATGGTTT | 0.955
95 | AGTATGTTTA | 0.975
96 | AGTATTCATC | 1.01
97 | AGTATTTGCG | 0.964
98 | AGTCAACTCT | 0.976
99 | AGTCAAGCGT | 0.992
100 | AGTCAAGGCC | 1.03

Row | Sequence | switch fluorescence ratio
101 | AGTCAAGGGC | 0.978
102 | AGTCACGAAT | 1.01
103 | AGTCAGGGAG | 1.01
104 | AGTCATCGTG | 1.09
105 | AGTCATCTAG | 1
106 | AGTCCATATC | 0.983
107 | AGTCCCAGCG | 1.04
108 | AGTCCCCTTC | 1.09
109 | AGTCCCTAGA | 1.06
110 | AGTCCGAGAG | 1.03
111 | AGTCCGCCTC | 2.79
112 | AGTCCGTCAT | 1.02
113 | AGTCCTCGCG | 1.07
114 | AGTCCTGCCA | 1.02
115 | AGTCGAATTC | 0.967
116 | AGTCGAGGAG | 0.972
117 | AGTCGCATAA | 1.09
118 | AGTCGGATTG | 0.938
119 | AGTCGGGATT | 0.991
120 | AGTCGGTAAT | 0.948
121 | AGTCTATGCC | 1.05
122 | AGTCTGAAG | 1.02
123 | AGTCTTAATG | 1.02
124 | AGTCTTATGT | 1.01
125 | AGTCTTCTCT | 1.08

Row | Sequence | switch fluorescence ratio
126 | AGTCTTGGCT | 1.02
127 | AGTGAAATTG | 1.01
128 | AGTGAATGGG | 0.964
129 | AGTGACCGGT | 1.03
130 | AGTGACGAAT | 1.03
131 | AGTGACGACC | 1.31
132 | AGTGAGAGAT | 1.03
133 | AGTGAGGCCA | 0.957
134 | AGTGAGGTGG | 1.01
135 | AGTGATTGTG | 0.951
136 | AGTGCATGAG | 1.05
137 | AGTGCCATCC | 1.1
138 | AGTGCCCTCA | 1
139 | AGTGCCTGGA | 1.08
140 | AGTGCGCGGT | 0.991
141 | AGTGCGGGCA | 0.973
142 | AGTGCGTTCT | 0.99
143 | AGTGCTACTG | 0.98
144 | AGTGGCAGGA | 0.995
145 | AGTGGCGAGC | 0.983
146 | AGTGGCTGCG | 1.02
147 | AGTGGGCGTC | 0.994
148 | AGTGGGTAGC | 1.04
149 | AGTGGGTTAT | 0.967
150 | AGTGGTGAAG | 0.972

Row | Sequence | switch fluorescence ratio
151 | AGTGTAACA | 1.03
152 | AGTGTCCAT | 1.03
153 | AGTGTCTAGA | 1
154 | AGTGTGTGTC | 0.977
155 | AGTGTTCATT | 0.928
156 | AGTGTTGATC | 1.03
157 | AGTGTTTTTC | 1.04
158 | AGTTAAAACT | 1.03
159 | AGTTAAATAA | 1.03
160 | AGTTAACACG | 0.992
161 | AGTTAACGGC | 1.03
162 | AGTTAAGGTA | 0.984
163 | AGTTAAGTAG | 0.971
164 | AGTTAATATT | 0.969
165 | AGTTAGGGGG | 0.996
166 | AGTTAGGT | 0.944
167 | AGTTAGTGTA | 0.997
168 | AGTTATAGCG | 0.968
169 | AGTTATAGG | 1.01
170 | AGTTATCAAT | 0.985
171 | AGTTATCAGC | 0.976
172 | AGTTATGGCT | 0.922
173 | AGTTATTAAG | 1.16
174 | AGTTCAAGAA | 0.992
175 | AGTTCACCAT | 1.03

Row | Sequence | switch fluorescence ratio
176 | AGTTCATTCG | 1.03
177 | AGTTCCATGG | 1
178 | AGTTCGGTTG | 0.939
179 | AGTTCGTGTC | 0.973
180 | AGTTCTGACC | 1.06
181 | AGTTCTTTA | 1.02
182 | AGTTGAATCA | 1.02
183 | AGTTGATAAA | 1
184 | AGTTGATCGC | 0.933
185 | AGTTGCAACG | 0.973
186 | AGTTGCCAAA | 0.984
187 | AGTTGGCATT | 1.03
188 | AGTTGGCCGC | 0.97
189 | AGTTGGGAT | 0.936
190 | AGTTTACGGG | 1.04
191 | AGTTTACTTA | 1
192 | AGTTTAGTAG | 0.966
193 | AGTTTATCAC | 1
194 | AGTTTATCTC | 1.05
195 | AGTTTCTGAT | 0.978
196 | AGTTTCTTAA | 0.956
197 | AGTTTGACAG | 1
198 | AGTTTGCGTG | 1.01
199 | AGTTTGTCCT | 1.03
200 | AGTTTGTGGA | 1.06
